About 14,000 (4.5%) of roughly 310,000 compounds showed an effect of 50% or more. The effect is printed as a negative number. The list shows a part of the results.
What follows are molecules tested against human ether-à-go-go-related gene (hERG) potassium channel (human, UniProt Q12809) (assay: primary screen, population patch clamp on CHO cells stably expressing hERG).
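Note: peak tail current of the secondary pulse compared with the same well before compound.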

Chain of human ether-à-go-go-related gene (hERG) potassium channel (Q12809 whole entry, looked up): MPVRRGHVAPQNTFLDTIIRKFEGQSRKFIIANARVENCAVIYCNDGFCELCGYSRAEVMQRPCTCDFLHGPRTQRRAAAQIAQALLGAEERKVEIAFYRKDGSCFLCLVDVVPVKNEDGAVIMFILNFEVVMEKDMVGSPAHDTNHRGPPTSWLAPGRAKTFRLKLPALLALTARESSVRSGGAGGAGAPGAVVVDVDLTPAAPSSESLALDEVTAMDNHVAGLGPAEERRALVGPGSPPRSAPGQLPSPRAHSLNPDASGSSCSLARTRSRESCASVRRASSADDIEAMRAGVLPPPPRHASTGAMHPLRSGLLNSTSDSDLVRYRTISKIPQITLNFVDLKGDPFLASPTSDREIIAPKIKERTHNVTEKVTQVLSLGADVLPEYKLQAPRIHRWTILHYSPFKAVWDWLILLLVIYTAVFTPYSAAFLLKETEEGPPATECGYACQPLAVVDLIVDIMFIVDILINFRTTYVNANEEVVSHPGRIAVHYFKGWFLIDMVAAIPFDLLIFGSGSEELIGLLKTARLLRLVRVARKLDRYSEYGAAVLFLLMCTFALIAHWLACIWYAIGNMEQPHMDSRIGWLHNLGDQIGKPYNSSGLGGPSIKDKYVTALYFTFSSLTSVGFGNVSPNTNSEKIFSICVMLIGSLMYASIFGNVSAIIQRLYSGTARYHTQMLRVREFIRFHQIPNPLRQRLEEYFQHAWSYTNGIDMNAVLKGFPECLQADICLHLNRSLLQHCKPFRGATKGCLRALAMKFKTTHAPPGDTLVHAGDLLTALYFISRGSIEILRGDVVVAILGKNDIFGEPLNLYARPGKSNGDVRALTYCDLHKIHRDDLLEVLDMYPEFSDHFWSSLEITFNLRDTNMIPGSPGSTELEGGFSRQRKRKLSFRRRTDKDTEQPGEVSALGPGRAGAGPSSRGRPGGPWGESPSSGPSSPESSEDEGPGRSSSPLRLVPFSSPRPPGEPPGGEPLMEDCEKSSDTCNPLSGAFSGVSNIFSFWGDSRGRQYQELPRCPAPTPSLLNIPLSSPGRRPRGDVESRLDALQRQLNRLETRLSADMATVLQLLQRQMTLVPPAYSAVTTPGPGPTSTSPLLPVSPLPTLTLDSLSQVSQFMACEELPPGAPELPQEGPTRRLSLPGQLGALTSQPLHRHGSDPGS

Structure (SMILES)	hERG current change (%, negative = inhibition) at 10uM [%]
Fc1cccc(Cl)c1/C=N/Nc1c(Cl)cncc1Cl	-7.36
Cc1cc(NCc2ccccc2)c2ccccc2n1.Cl	-67.5
CCOC(=O)c1c(NC(=O)CSc2nnc(C)s2)sc2c1CCCCC2	12.7
CCOc1ccc(CCNC(=O)COC(=O)c2ccc(C)c([N+](=O)[O-])c2)cc1OCC	-7.57
O=C1c2cccc3cccc(c23)C(=O)N1Cc1cccnc1	-4.51
CCCC(=O)Nc1nc(C)c(-c2csc(Nc3ccccc3OC)n2)s1	5.74
Cc1nn(Cc2cccc(C(=O)Nc3ccn(Cc4ccccc4)n3)c2)c(C)c1[N+](=O)[O-]	-9.27
CC(Nc1cccc2ccccc12)C(=O)N/N=C/c1ccc([N+](=O)[O-])cc1 (stereo not drawn)	-4.28
CCCOC(=O)/C=C/c1c(C)[nH]c(=O)[nH]c1=O	2.13
Cc1ccc(NC(=S)NCc2ccc(Cl)cc2)c(OC(F)F)c1	-6.64
CCOc1ccccc1N(CC(=O)NCCSc1ccccc1)S(C)(=O)=O	1.91
COc1ccc(N=Cc2ccc(-c3ccccc3)o2)cc1	5.03
CCOc1ccc(C(=O)Nc2nnc(S(=O)(=O)N3CCCCC3)s2)cc1	19.7
CC(=O)Nc1ccc(Oc2sc(C(=O)c3ccccc3)c(N)c2C#N)cc1	12.7
CC1=NN(C(=O)c2ccc(Cn3nc(C)c(Br)c3C)cc2)C(O)(C(F)(F)F)C1 (stereo not drawn)	1.79
COc1ccc(Nc2nc(-c3sc(N)nc3C)cs2)cc1	8.32
C(=N\Nc1nc2ccccc2s1)/c1ccco1	-17.8
CC(=O)Oc1c(C)c(=O)n(C)c2ccccc12	18.1
CC(C)[C@H](NC(=O)c1ccco1)C(=O)NCc1ccccc1	25.1
Cc1cc(S(=O)(=O)NCc2ccc(N3CCN(C)CC3)cc2)c(C)s1	-9.41
O=c1[nH][nH]c(=O)c2c(NS(=O)(=O)c3ccccc3)cccc12	24.7
COc1cccc(CSc2nnnn2-c2ccc(O)cc2)c1	-18.5

Structure (SMILES)	hERG current change (%, negative = inhibition) at 10uM [%]
Cc1c(O)ccc2c(O)c(NC(=O)c3ccc4c(c3)CCC(C)(C)O4)c(=O)oc12	6.09
O=S(=O)(NC(=S)c1ccccc1)c1ccccc1	-15.1
O=C(C1CC(c2ccc(F)cc2)=NO1)N1CCN(Cc2ccccc2)CC1 (stereo not drawn)	-44.5
O=C(Oc1ccc(NC2=NS(=O)(=O)c3ccccc32)cc1)c1cccnc1	11.7
CC(C(=O)Nc1ccc2c(c1)OCO2)N1CCC(N2CCCCC2)CC1.O=C(O)C(=O)O (stereo not drawn)	5.95
Cc1cc(NC(=O)CSc2nnc(COc3ccccc3)o2)no1	6.51
Cc1cc(NC(=O)/C=C/c2cccc(F)c2)n(-c2nc3ccccc3[nH]2)n1	1
CCOc1ccc(/C=N/n2c(COc3ccccc3)n[nH]c2=S)cc1OC	14.8
CN(C)S(=O)(=O)c1cccc(NC(=O)CNCC2CCCCC2)c1.O=C(O)C(=O)O	-1.77
Cc1ccc(NC(=O)COC(=O)C2CCC(=O)N2)c(S(=O)(=O)N2CCOCC2)c1 (stereo not drawn)	-0.0412
Cc1c(C(=O)NN2CCOCC2)oc2c1ccc1ccccc12	2.24
Fc1ccccc1SCc1nnc(-c2ccccc2Br)o1	2.04
Cc1ccc2c(c1)N(CCCC(=O)NCCCN1CCCC1=O)C(=O)CO2	-8.71
CC(C)N(Cc1ccccc1)C(=S)NC(=O)C1(C)CC1(Cl)Cl (stereo not drawn)	-7.04
O=C(O)CCCC(=O)Nc1nc2n(n1)C(c1ccc(F)cc1)CC(c1ccc(Cl)cc1)N2 (stereo not drawn)	-0.46
CCOC(=O)c1nn(-c2ccc(C)cc2)cc1C(=O)c1ccccc1	-9.04
Cc1ccc(C(=O)NCC(=O)OCC(=O)c2ccccc2)s1	-12.6
NC(=O)CSc1nc2c(c(=O)n1-c1ccccc1)C1(CCCCC1)Cc1ccccc1-2	15.1
Cc1cc(C)c(C#N)c(SCc2nc3ccccc3[nH]2)n1	-9.19
Cc1ccc(NC(=O)CC(C)S(=O)(=O)c2ccc3c(c2)NC(=O)CO3)c(Cl)c1 (stereo not drawn)	14.1
COc1ccc(NC(=O)C2CCCN(S(=O)(=O)c3ccc(C)cc3)C2)cc1OC (stereo not drawn)	20.4
O=C(O)C(=O)O.O=C(c1cccs1)N1CCN(Cc2cccc([N+](=O)[O-])c2)CC1	-33.1

Structure (SMILES)	hERG current change (%, negative = inhibition) at 10uM [%]
CCC(C)NC(=O)c1cc2c(=O)n3cccc(C)c3nc2s1 (stereo not drawn)	-4.95
O=C(NCCc1c[nH]c2ccccc12)/C(=C/c1cccnc1)NC(=O)c1cccs1	-19.1
O=C(c1ccc(F)cc1)n1c(=S)nc2ccccn21	-1.25
CCOC(=O)c1c(NC(=O)CN2C(=O)NC(C)(c3ccccc3)C2=O)sc(C)c1C (stereo not drawn)	6.2
Cc1ccnc(NC(=O)Cc2ccc(-c3ccccc3)cc2)c1	16.4
CS(=O)(=O)c1ccccc1-c1nc(-c2ccc([N+](=O)[O-])cc2)no1	0.719
CC1=C(C(=O)OCc2ccccc2)C(c2ccccc2Br)NC(=O)N1 (stereo not drawn)	14.8
CC(C)c1ccccc1NS(=O)(=O)N(C)C	13.9
CN(C(=O)c1ccc(NC(=O)Cc2ccc(NC(=O)C3CCCN(C(=O)c4ccccc4)C3)cc2)cc1)C1CC1 (stereo not drawn)	15.4
O=C(NCc1cccnc1)C1CCC(CNS(=O)(=O)c2cccc3nsnc23)CC1 (stereo not drawn)	-9.63
O=C(NCCc1nnc2ccc(N3CCCCCC3)nn12)c1ccccc1F	-7.75
CCOC(=O)c1c(NC(=O)CSc2nc3ccc(OC)cc3[nH]2)sc2c1CC(C)(C)NC2(C)C	-48.5
CCN(CC)CCCNC(=O)c1cc2c(-c3cccc(OC)c3)nn(C)c2s1	-44.7
Cc1c(C(=O)OCC[N+]2(C)CCCCC2)oc2ccccc12.[I-]	14.3
Fc1ccccc1N1CCN(c2ncnc3nc[nH]c23)CC1	13.4
CCCC12CN3CC(C)(CN(C1)C31CCCCC1)C2=O	7.73
CCOc1ccc(-n2c(SCc3cc(=O)oc4cc(C)c(C(C)C)cc34)nnc2-c2cccnc2)cc1	-37.2
O=C(CSc1ccc2ccccc2n1)NCc1ccc2c(c1)OCO2	-4.68
Cc1ccc(Cl)cc1N1CCN(C(=S)NCc2ccco2)CC1	37.1
Cc1ccc(N2CCN(S(=O)(=O)c3ccc(Cl)s3)CC2C)cc1 (stereo not drawn)	18.1
Cc1ccc(S(=O)(=O)N2CCN(C(=S)NCc3ccc4c(c3)OCO4)CC2)cc1	-13.1
Cc1nn(CCC#N)c2nc(C(F)(F)F)[nH]c(=O)c12	-10.5

Structure (SMILES)	hERG current change (%, negative = inhibition) at 10uM [%]
O=C(CS(=O)(=O)c1ccc(F)cc1)N1CCN(c2ccccc2)CC1	-42.4
COc1cccc(/C=N/n2c(-c3cc(C)[nH]n3)n[nH]c2=S)c1O	12.6
CCC1(c2ccccc2)NC(=O)N(CC(=O)Nc2ccc3c(C)cc(=O)oc3c2)C1=O (stereo not drawn)	14.7
O=S(=O)(CC(CN1CCOCC1)N1CCOCC1)c1ccccc1 (stereo not drawn)	-1.61
O=C(Nc1nccs1)c1cc(S(=O)(=O)N2CCCCC2)ccc1Cl	2.28
CC(OC(=O)CC1Sc2ccccc2NC1=O)C(=O)NC1CCCC1 (stereo not drawn)	6.22
Cn1c(N)c(C(=O)COC(=O)CNS(=O)(=O)c2cccc(Cl)c2)c(=O)n(C)c1=O	-13.2
CN1C(=O)/C(=C/c2ccccc2F)Sc2ccc(C(=O)N3CCCC3)cc21	-8.83
COc1ccc(OCc2n[nH]c(=S)n2N)cc1	37.8
N#CCSc1nc2sc3c(c2c(=O)n1C1CCCCC1)CCCC3	-0.102
CCc1ccccc1N(CC(=O)NCC1CCCO1)C(=O)CCC(=O)Nc1nccs1 (stereo not drawn)	27
CN(CC(=O)Nc1ccccc1Br)C(=O)c1ccc(-c2ccc(Cl)cc2)o1	5.51
Cc1cc(=O)n(CC(C)O)c(O)c1C#N (stereo not drawn)	16.8
COc1ccccc1N1CCN(Cc2cccc(OC)c2OC)CC1	-12.5
O=c1[nH]c(=O)n(CCC2=CCCCC2)c(O)c1C=NCCCn1ccnc1	-17.6
Cc1cccc2nc(COc3ccc4ccccc4c3Br)cn12	-9.01
Cc1ccc(C(=O)O/N=C\c2ccc(N3CCCCC3)c([N+](=O)[O-])c2)cc1	12.8
Cc1ccccc1Nc1nc(N)nc(COC(=O)/C=C/c2ccco2)n1	-1.28
Cc1cccn2c(=O)c3cc(C(=O)NC4CCCC4)c(=N)n(Cc4ccc(F)cc4)c3nc12	-68.2
CC(=O)c1c(N2CCCC2)nc(=S)n(-c2ccccc2)c1C	-0.251
O=C(NCCCc1ccccc1)C(=O)NCC1OCCN1S(=O)(=O)c1cc(F)ccc1F (stereo not drawn)	-15

Reference: article PMC4336329 (PLoS ONE, 2015)
